In the supplement of paper PMC11417369:
± gives the standard deviation of the averaged measurements. The list shows a part of the results.

System: PfAP2-EXP AP2 domain (GST-tagged)
Experiment: gcPBM binding intensity (ln(normalized median fluorescence intensity)); higher = stronger DNA binding
In short: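 The highest Masliner-normalised natural-log median intensity across replicate spots of either probe orientation is reported as binding intensity. GST-tagged P. falciparum DNA-binding domains expressed in E. coli were applied for 1 h to an Agilent 4 × 180k array of primer-extended double-stranded 36-bp intergenic genomic probes plus negative controls, and bound protein was detected with Alexa488 anti-GST antibody and scanned at 488 nm.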

Row | Sequence | gcPBM binding intensity (ln)
1 | TATCCTTATATTTGCACACACACACCCTAAAATGAA [CACACA_site1029] | 9.06 ± 0.19
2 | TTTATATTTAAAAGGATGCACTACAAATTCTAAATA | 8.38 ± 0.28
3 | AAAACAAACAGACACACACACATATTTATATTTATA [CACACA_site7681] | 8.55 ± 0.46
4 | TTATATTAAACAAACACACACATATAAATATAAATA [CACACA_site7174] | 8.82 ± 0.42
5 | CTACAATATCTTTAAAGTACTTTTATATAACTACCA [XGTACX_site6119] | 8.63 ± 0.35
6 | AAGACAAATATGAAGAGTACATTTATATAAAAATTA [XGTACX_site5142] | 8.62 ± 0.51
7 | ATTTTTTCCAATTCTTTACCTTAGAAAGGTGTTCAA [CACACA_negctrl_site1401] | 8.51 ± 0.52
8 | ATATATTTTTATGTAGTGCATTTAAATAATAAATGC | 8.45 ± 0.11
9 | ATTCTAAATAAATGTACACACAAAAATAAATGTATA [CACACA_site1732] | 8.61 ± 0.31
10 | ACCTCATAATATTTAACACACAAAATTATATGTATG [CACACA_site1704] | 8.65 ± 0.33
11 | ATATATATATAATGAAGTACGAAAAAATAAGAAATG [XGTACX_site4001] | 9.53 ± 0.028
12 | TTTTTTTTTTTAAGTTCACACATAAATTCGATTTAC [CACACA_site5057] | 8.4 ± 0.4
13 | ACCGTTTTTGTGTAATGTACAAAATTTCTGACAGTG [XGTACX_site4999] | 8.7 ± 0.4
14 | AAAGGAAAATTAAAAAGTACACATTTGAAAAAAAAA [XGTACX_site2724] | 8.53 ± 0.28
15 | ATAATTTGTAAAAGGAGTACAAAACCATACTTTTTT [XGTACX_site6076] | 8.4 ± 0.19
16 | ATGTATTTAATAAGAACACACATATATTTAATTTAA [CACACA_site5606] | 8.22 ± 0.47
17 | TTTATACATTTATATTGTACTAATTCGATTTTATAT [XGTACX_site5424] | 8.55 ± 0.32
18 | AATGATCATATATACACACACACAAAAAAAAAAAAA [CACACA_site4009] | 8.32 ± 0.49
19 | AAAGAAAAAGAAAAAGAAAAATTAGAATATAAAATA [CACACA_negctrl_site792] | 8.22 ± 0.57
20 | ATAAGAAATGTAACTTGTACATAAGGATATATATTT [XGTACX_site236] | 8.59 ± 0.35
21 | CATTTATATAAATACACACACACAAAAAAAAAAAAA [CACACA_site5459] | 8.3 ± 0.6
22 | TAATAATAAAAAAATAGTACATAAATAAAAATAATA [XGTACX_site4774] | 8.61 ± 0.38
23 | ATTTATAAAATTAATGCACACATCAGCATTTATAAA [CACACA_site1025] | 8.72 ± 0.24

Row | Sequence | gcPBM binding intensity (ln)
24 | TAAATACATAGATGTACACACATTACAGATGTACAT [CACACA_site4692] | 8.48 ± 0.32
25 | TATAAAATAAAAAATAAATATCTATATATATATATA [TGCATGCA_negctrl_site351] | 9.96 ± 0.33
26 | TTGTGTTATCCTTTTTTAGATCAACTATTTTTATTC [CACACA_negctrl_site145] | 8.54 ± 0.4
27 | ATAAAGCACACCGACACACACATATTTATATTTATA [CACACA_site6620] | 8.79 ± 0.12
28 | TATATATATATATATGTGCGCATATATTTTTTTGTA [GTGCAC_site9983] | 10.1 ± 0.18
29 | ACAAAATTTACAAAATGTACAAAATATACAAAATAT [XGTACX_site6465] | 8.55 ± 0.43
30 | TATTCTTATATATATACACACACAAAATATCTACAA [CACACA_site8144] | 8.58 ± 0.33
31 | TTGCATTGATCAAACATACACACATGGTTAATAAAA [CACACA_site2084] | 8.64 ± 0.47
32 | CATGAGGTATAAAAGGTGCAAATTAATGAGAACATT | 9.09 ± 0.17
33 | TTATATCAAGGGAATGCATGCATATCGTTTTGTATT [TGCATGCA_site327] | 9.85 ± 0.63
34 | ACTAGACAAAATATAATGCACACTATTATTTTTATT [CACACA_site2726] | 8.795 ± 0.049
35 | AATAATATACATATATATATTATATTGTAATTTTGT [TGCATGCA_negctrl_site1] | 8.08 ± 0.41
36 | TATTTCTCACTGTATGGTACAGATATAAATTTTTAT [XGTACX_site8776] | 8.54 ± 0.34
37 | ATCAAATTTTTGTTATGTACACAATCATTTAATAAA [XGTACX_site810] | 8.41 ± 0.37
38 | ATTACAATAAATTCGTGTACATGATACCGCCGCTAC [XGTACX_site8997] | 8.77 ± 0.45
39 | CACAAATAAATATTCACACATATATGTCTTATATAT [CACACA_site5323] | 8.34 ± 0.38
40 | AAAAAAAAAAAATAGGTGCGTGTTACTTTTGTATGC [GTGCAC_site9524] | 8.7 ± 0.49
41 | TAATTATTATTAAATACACACACATACCTCCATGTT [CACACA_site9134] | 8.49 ± 0.39
42 | AAACAGATAAATAAAAGTACACATTAAAAGGTAGCA [XGTACX_site4150] | 8.66 ± 0.3
43 | ATATATATGTATAATCGTACAGTTAACGTATTCTTA [XGTACX_site5649] | 8.64 ± 0.38
44 | TAATTAATTTCTTTACGTACATAATTAATATATATA [XGTACX_site7372] | 8.63 ± 0.31
45 | GGATTTTAATGAACACGTACATAAAATTAAATAAAT [XGTACX_site7023] | 8.63 ± 0.3
